# Data reported in the supplement of paper PMC12217912.
# The list shows a part of the results. Sequences were assembled here from the parent chain. Inactive controls read about 0.05.
# B1: TEV protease; numbered along this chain (parent)
# chain: MGESLFKGPRDYNPISSSICHLTNESDGHTTSLYGIGFGPFIITNKHLFRRNNGTLVVQSLHGVFKVKDTTTLQQHLVDGRDMIIIRMPKDFPPFPQKLKFREPQREERICLVTTNFQTKSMSSMVSDTSCTFPSGDGIFWKHWIQTKDGQCGSPLVSTRDGFIVGIHSASNFTNTNNYFTSVPKNFMELLTNQEAQQWVSGWRLNADSVLWGGHKVFMVKPEEPFQPVKEATQL
# Variants of: B1
# Test: raw area under fraction-flipped curve 0-4 h after induction (AUC4h, not background-subtracted), DNA-recorder readout of cleavage of the substrate (dimensionless); higher = more cleavage of the substrate by the protease variant
# Details: temperature: 34 °C; time window: 0-4 h after rhamnose induction
# 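Further: Bxb1 expression induced with 0.2% (w/v) L-rhamnose at OD600 near 0.5, cultures sampled hourly, flipped fraction per protease–substrate barcode pair counted by paired-end Illumina sequencing.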
Variant,area with substrate ENLYFDS,area with substrate ENLYFES,area with substrate ENLYFFS,area with substrate ENLYFHS,area with substrate ENLYFIS,area with substrate ENLYFKS,area with substrate ENLYFMS,area with substrate ENLYFNS,area with substrate ENLYFPS,area with substrate ENLYFRS,area with substrate ENLYFSS,area with substrate ENLYFTS,area with substrate ENLYFVS,area with substrate ENLYFWS,area with substrate ENLYFYS,area with substrate ENLYFCS,area with substrate ENLYFLS,area with substrate ENLYFGS
MGESLFKGPRDYNPISSSICHLTNESDGHTTSLYGIGFGPFIITNKHLFRRNNGTLVVQSLHGVFKVKDTTTLQQHLVDGRDMIIIRMPKDFPPFPQKLKFREPQREERICLVTTNFQTKSMSSMVSDLSCTFPSGDGIFWKHWIQTKDGQCGSPLVSTRDGFIVGIHSASNFTNTNNYFTSVPKNFMELLTNQEAQQWVSGWRLNADSVLWGGHKVFMVKPEEPFQPVKEATQL [T129L],0.0554,0.0606,0.0707,0.0387,0.0505,0.0631,0.0695,0.0782,0.0605,0.0625,0.0599,0.0598,0.0576,0.0582,0.0625,–,–,–
MGESLFKGPRDYNPISSSICHLTNESDGHTTSLYGIGFGPFIITNKHLFRRNNGTLVVQSLHGVFKVKDTTTLQQHLVDGRDMIIIRMPKDFPPFPQKLKFREPQREERICLVTTNFQTKSMSSMVSDTSCTFPSGDGIFWKHWIQTKDGQCGSPLVSTRDGFIVGIHSASNFTNTNNYFTSVPKNFMELLTNQEAQQWVSGWRLNADSVLGGGHKVFMVKPEEPFQPVKEATQL [W212G],0.0544,0.059,0.0673,–,0.0584,0.0527,–,–,0.064,0.0591,–,–,0.0607,–,–,0.0458,0.0492,–
MGESLFKGPRDYNPISSSICHLTNESDGHTTSLYGIGFGPFIITNKHLFRRNNGTLVVQSLHGVFKVKDTTTLQQHLVDGRDMIIIRMPKDFPPFPQKLKFREPQREERICLVTTNFQTKSMSSMVSDTSCTFPSGDGIFWKHWIQTKDGQCGSPLVSTRDGFIVGIHSASNFTNTNNYFTSVPKNFMELLTNQEAQQWVSGWRLNADSVLWGGHKVFMVKPEEPFQPVSEATQL [K230S],–,0.0634,0.0679,0.0263,0.0662,–,0.0815,–,0.0559,0.0515,0.0653,0.0977,0.0545,0.0595,0.062,0.0727,0.0685,–
MGESLFKGPRDYNPISSSICHLTNESDGHTTSLYGIGFGPFIITNKHLFRRNNGTLVVQSLHGVFKVKDTTTLQQHLVDGRDMIIIRMPKDFPPFPQKLKFREPQREERICLVTTNFQTKSMSSMVLDTSCTFPSGDGIFWKHWIQTKDGQCGSPLVSTRDGFIVGIHSASNFTNTNNYFTSVPKNFMELLTNQEAQQWVSGWRLNADSVLWGGHKVFMVKPEEPFQPVKEATQL [S127L],0.0563,0.0503,0.0601,–,0.0732,–,0.0956,–,0.0571,–,–,0.0674,0.0624,0.046,–,–,0.0608,0.0519
MGESLFKGPRDYNPISSSICHLTNESDGHTTSLYGIGFGPFIITNKHLFRRNNGTLVVQSLHGVFKVKDTTTLQQHLVDGRDMIIIRMPKDFPPFPQKLKFREPQREERICLVTTNFQTKSMSSMVSDTSCTFPSGDGIFWKHWIQTKDGQCGSPLVSTRDGFIVGIHSASNFTNTNNYFTSVPKNFMELLTNQEAQQWVGGWRLNADSVLWGGHKVFMVKPEEPFQPVKEATQL [S201G],0.0526,0.0616,0.0652,0.0398,0.0578,–,0.0455,0.0568,0.0598,–,0.0659,0.0572,–,0.115,0.056,0.0624,0.0581,0.0673
MGESLFKGPRDYNPISSSICHLTNESDGHTTSLYGIGFGPFIITNKHLFRRNNGTLVVQSLHGVFKVKDTTTLQQHLVDGRDMIIIRMPKDFPPFPQKLYFREPQREERICLVTTNFQTKSMSSMVSDTSCTFPSGDGIFWKHWIQTKDGQCGSPLVSTRDGFIVGIHSASNFTNTNNYFTSVPKNFMELLTNQEAQQWVSGWRLNADSVLWGGHKVFMVKPEEPFQPVKEATQL [K100Y],0.0825,0.0538,0.0593,0.0538,0.0503,0.0627,0.0951,–,0.066,0.0585,–,0.0507,0.0706,0.0444,–,–,0.0779,0.0628
MGESLFKGPRDYNPISSSICHLTNESDGHTTSLYGIGFGPFIITNKHLFRRNQGTLVVQSLHGVFKVKDTTTLQQHLVDGRDMIIIRMPKDFPPFPQKLKFREPQREERICLVTTNFQTKSMSSMVSDTSCTFPSGDGIFWKHWIQTKDGQCGSPLVSTRDGFIVGIHSASNFTNTNNYFTSVPKNFMELLTNQEAQQWVSGWRLNADSVLWGGHKVFMVKPEEPFQPVKEATQL [N53Q],0.0689,0.0656,0.0773,0.0676,0.0593,0.0571,0.0539,–,0.0621,0.0604,0.0566,0.0546,0.0517,0.074,–,–,0.0547,–
MGESLFKGPRDYNPISSSICHLTNESDGHTTSLYGIGFGPFIITNKHLFRRNNGTLVVQSLHGVFKVKDTTTLQQHLVDGRDMIIIRMPKDFPPFPQKLKFREPQREERICLVTTNFQTKSMSSMVSDTSCTFPSGDGIFWKHWIQTKDGQCGSPLVSTRDGFIVGIHSASNFTNTNNYFTSVPKNFMELLTNQEAQQWVSGWRLNADSVLWGGHKVFMVKPEEPFQPVKNATQL [E231N],0.0169,0.0562,0.0648,0.0674,0.0487,–,0.0616,–,0.0655,0.0525,0.0671,0.0592,0.055,0.046,0.0546,0.0722,0.0547,0.063
MGESLFKGPRDYNPISSSICHLTNESDGHTTSLYGIGFGPFIITNKHLFRRNNGTLVVQSLHGVFKVKDTTTLQQHLVDGRDMIIIRMPKDFPPFPQKLKFREPQREERICLVTTNFQTKSMSSMVSDTSCTFPSGDGIFWKHWIQTKDGQCGSPLVSTRDGFIVGIHSASNFTNTNNYFTSVPKNFMELLTNQEAQQWVSGWRLNADSVLWGGHKVFMVKPEEPFQPVKVATQL [E231V],0.0561,0.0622,–,0.0613,0.0419,–,–,0.081,0.0661,0.0553,0.06,–,0.0618,0.0611,0.0608,0.0739,0.0551,–
MGESLFKGPRDYNPISSSICHLTNESDGHTTSLYGIGFGPFIITNKHLFRRNNGTLVVQSLHGVFKVKDTTTLQQHLVDGRDMIIIRMPKDFPPFPQKLKFREPQREERICLVTTNFQTKSMSSMVSDTSCTFPSGDGIFWKHWIQTKDGQCGSPLVSTRDGFIVGIHSASNFTNTNNYFTSVPKNFMELLTNQEAQQWVSGWRLNADSVLWGGHKVFMVKPEEPFWPVKEATQL [Q227W],0.0432,0.0671,0.0358,0.05,0.0483,0.0705,0.0694,0.0578,0.0268,0.0613,–,–,–,–,0.0578,0.0598,–,–
MGESLFKGPRDYNPISSSICHLTNESDGHTTSLYGIGFGPFIITNKHLFRRNNGTLVVQSLHGVFKVKDTTTLQQHLVDGRDMIIIRMPKDFPPFPQKLKFREPQREERICLVTTNFQTKSMSSMVSDTSCTFPSGDGIFWKHWIQTKDGQCGSPLVSTRDGFIVGIHSASNFTNTNNYFTSVPKNFMELLTNQEAQNWVSGWRLNADSVLWGGHKVFMVKPEEPFQPVKEATQL [Q198N],0.0807,0.0462,–,0.0585,–,0.0633,0.0689,–,–,0.0747,0.0691,0.0734,–,–,0.0515,0.0638,–,0.0563
MGESLFKGPRDYNPISSSICHLTNESDGHTTSLYGIGFGPFIITNKHLFRRNNGTLVVQSLHGVFKVKDTTTLQQHLVDGRDMIIIRMPKDFPPFPQKLKFREPQREERICLVTTNFQTKSMSSMVSDTSCTFPSGDGIFWKHWIQTKDGQCGSPLVSTRDGFIVGIHSASNFTNTNNYFTSVPKNFMELLTNQEAQTWVSGWRLNADSVLWGGHKVFMVKPEEPFQPVKEATQL [Q198T],0.0907,0.0626,0.0789,–,0.0818,0.0625,0.075,–,0.0587,0.0508,–,0.0621,–,0.0423,–,0.0586,0.0614,–
MGESLFKGPRDYNPISSSICHLTNESDGHTTSLYGIGFGPFIITNKHLFRRNNGTLVVQSLHGVFKVKDTTTLQQHLVDGRDMIIIRMPKDFPTFPQKLKFREPQREERICLVTTNFQTKSMSSMVSDTSCTFPSGDGIFWKHWIQTKDGQCGSPLVSTRDGFIVGIHSASNFTNTNNYFTSVPKNFMELLTNQEAQQWVSGWRLNADSVLWGGHKVFMVKPEEPFQPVKEATQL [P94T],0.0653,0.0415,0.0719,0.0797,0.0479,–,0.0694,0.0723,0.0536,–,0.0694,0.0581,–,–,–,–,–,0.0547
MGESLFKGPRDYNPISSSICHLTNESDGHTTSLYGIGFGPFIITNKHLFRRNNGTLVVQSLHGVFKVKDTTTLQQHLVDGRDMIIIRMPKDFPPFPQKLKFREPQREERICLVTTNFQTKSMSSMVSDTSCTFPSCDGIFWKHWIQTKDGQCGSPLVSTRDGFIVGIHSASNFTNTNNYFTSVPKNFMELLTNQEAQQWVSGWRLNADSVLWGGHKVFMVKPEEPFQPVKEATQL [G136C],0.0619,0.071,0.0657,0.0702,0.0581,–,0.0657,0.0629,0.0701,0.0518,0.0509,0.0567,0.0605,0.0616,0.0546,–,–,0.0533
MGESLFKGPRDYNPISSSICHLTNESDGHTTSLYGIGFGPFIITNKHLFRRNNGTLVVQSLHGVFKVKDTTTLQQHLVDGRDMIIIRMPKDFPPFPQKLKFMEPQREERICLVTTNFQTKSMSSMVSDTSCTFPSGDGIFWKHWIQTKDGQCGSPLVSTRDGFIVGIHSASNFTNTNNYFTSVPKNFMELLTNQEAQQWVSGWRLNADSVLWGGHKVFMVKPEEPFQPVKEATQL [R102M],0.0474,0.0513,0.0469,0.0489,0.0496,0.0584,0.0706,0.0513,0.045,0.0422,0.0589,0.0562,–,0.0538,0.0677,–,–,–
MGESLFKGPRDYNPISSSICHLTNESDGHTTSLYGIGFGPFIITNKHLFRRNNGTLVVQSLHGVFKVKDTTTLQQHLVDGRDMIIIRMPKDFPPFPQKLKFREPQREERICLVTTNFQTKSMSSMVSDTSCTFPSGDGIFWKHWIQTKDGQCGSPLVSTRDGFIVGIHSASNFTNTNNYFTSVPKNFMELLTNQEAQQWVSGWRLNKDSVLWGGHKVFMVKPEEPFQPVKEATQL [A207K],–,–,0.0769,0.067,0.0412,–,–,0.065,0.0613,0.0513,0.0632,–,–,0.0729,0.0518,0.0792,0.0842,–
MGESLFKGPRDYNPISSSICHLTNESDGHTTSLYGIGFGPFIITNKHLFRRNNGTLVVQSLHGVFKVKDTTTLQQHLVDGRDMIIIRMPKDFPPFPQKLKFREPQREERICLVTTNFQTKSMSSMVSDTSCTFPSGDGIFWKHWIQTKDGQCGSPLVSTRDGFIVGIHSASNFTNTNNYFTSVPKNFMELLTNQEAQQWVSGWRLNADSVLWGGHKVNMVKPEEPFQPVKEATQL [F218N],–,–,–,–,–,–,0.066,0.0578,0.0537,0.0675,–,–,–,0.0318,0.069,0.0506,–,0.0628
MGESLFKGPRDYNPISSSICHLTNESDGHTTSLYGIGFGPFIITNKHLFRRNNGTLVVQSLHGVFKVKDTTTLQQHLVWGRDMIIIRMPKDFPPFPQKLKFREPQREERICLVTTNFQTKSMSSMVSDTSCTFPSGDGIFWKHWIQTKDGQCGSPLVSTRDGFIVGIHSASNFTNTNNYFTSVPKNFMELLTNQEAQQWVSGWRLNADSVLWGGHKVFMVKPEEPFQPVKEATQL [D79W],0.0685,0.0693,0.0707,0.0464,0.0552,0.054,0.0563,–,0.0468,–,0.0633,0.0673,0.0605,0.06,–,–,0.0658,0.0616
